# In all, about 310,000 compounds went through this assay and about 14,000 (4.5%) showed an effect of 50% or more. The effect is printed as a negative number. This is one part of the list.
# Target: human ether-à-go-go-related gene (hERG) potassium channel (human, UniProt Q12809)
# Test: primary screen, population patch clamp on CHO cells stably expressing hERG
# 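Also: peak tail current of the secondary pulse compared with the same well before compound.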
# Sequence of human ether-à-go-go-related gene (hERG) potassium channel (Q12809 whole entry, looked up): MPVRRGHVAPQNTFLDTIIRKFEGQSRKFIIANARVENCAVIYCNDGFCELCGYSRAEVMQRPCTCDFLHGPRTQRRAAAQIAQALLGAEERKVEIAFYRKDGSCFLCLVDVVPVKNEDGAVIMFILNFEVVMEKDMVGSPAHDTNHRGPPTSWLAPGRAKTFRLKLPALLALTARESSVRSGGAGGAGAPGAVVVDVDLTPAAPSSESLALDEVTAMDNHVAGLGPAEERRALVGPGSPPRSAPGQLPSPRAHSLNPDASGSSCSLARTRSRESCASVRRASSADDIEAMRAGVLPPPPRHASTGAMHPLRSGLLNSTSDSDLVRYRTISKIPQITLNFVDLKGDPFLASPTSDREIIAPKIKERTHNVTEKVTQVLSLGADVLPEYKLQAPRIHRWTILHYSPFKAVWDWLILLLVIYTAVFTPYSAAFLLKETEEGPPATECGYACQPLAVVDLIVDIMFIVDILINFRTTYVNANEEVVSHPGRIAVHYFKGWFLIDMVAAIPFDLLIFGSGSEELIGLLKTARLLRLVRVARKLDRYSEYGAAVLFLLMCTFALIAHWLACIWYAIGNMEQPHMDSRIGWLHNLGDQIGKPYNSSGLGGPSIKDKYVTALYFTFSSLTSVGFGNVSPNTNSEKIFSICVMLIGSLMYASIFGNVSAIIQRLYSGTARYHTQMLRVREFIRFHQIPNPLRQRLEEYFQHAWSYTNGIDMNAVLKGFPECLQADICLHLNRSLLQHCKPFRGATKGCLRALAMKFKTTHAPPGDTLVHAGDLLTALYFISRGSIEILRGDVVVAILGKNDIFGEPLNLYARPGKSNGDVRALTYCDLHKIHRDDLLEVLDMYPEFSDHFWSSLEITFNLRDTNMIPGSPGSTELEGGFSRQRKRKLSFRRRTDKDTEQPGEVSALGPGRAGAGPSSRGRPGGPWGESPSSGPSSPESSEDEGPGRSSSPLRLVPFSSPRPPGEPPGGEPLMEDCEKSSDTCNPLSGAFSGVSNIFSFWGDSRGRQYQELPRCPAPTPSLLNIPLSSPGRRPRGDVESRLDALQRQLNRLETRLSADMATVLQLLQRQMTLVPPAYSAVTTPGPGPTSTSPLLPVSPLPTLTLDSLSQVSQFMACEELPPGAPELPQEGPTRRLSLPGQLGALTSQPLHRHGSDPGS
row,SMILES,"hERG current change (%, negative = inhibition) at 10uM [%]"
1,COc1ccc(-n2cnc3c(cnn3CCC#N)c2=N)cc1,-10.1
2,CCC/C(=N\NC(=O)c1ccc(CSc2nncn2C)cc1)c1ccccc1,-8.28
3,COc1ccccc1/C=C(/C(=O)OCC(=O)Nc1ccccc1C(C)C)c1ccccc1,18.3
4,Cc1cc(N2CCOCC2)nc2ccc(NC(=S)NC(C)C)cc12,-12.4
5,COc1ccc(NC(=O)c2ccc3c(c2)OCO3)cc1Cl,5.02
6,CN(CC(=O)Nc1ccccc1Sc1ccccc1)C1CCCCC1,2.53
7,CCOCCCNC(=O)CCSc1ccc(C)cc1,8.23
8,Cc1cccc(NC(=O)Nc2ccc(Cl)c(Cl)c2)n1,9.38
9,C#CCOCCOCCOCCNc1nc(N2CCN(C(=O)C(Cc3ccc(O)cc3)n3cc(C(N)CC(C)C)nn3)CC2)nc(N2CCN(C(=O)C(Cc3cc4ccccc4[nH]3)n3cc(C(N)Cc4ccc(O)cc4)nn3)CC2)n1.Cl (stereo not shown),-5.48
10,COc1ccc(Nc2nc(N)nc(SCc3nnc(C)s3)n2)cc1,-1.03
11,COc1cc(CCC(=O)N2CCN(c3cccc(C)c3C)CC2)cc(OC)c1OC,-2.88
12,CC(=O)N(C)C(c1ccc(N(C)C)cc1)c1nnnn1-c1c(C)cccc1C (stereo not shown),-7.93
13,COc1ccc(CN(C(=O)c2cc(=O)c3ccccc3o2)C2CCS(=O)(=O)C2)cc1 (stereo not shown),-30.4
14,N#Cc1ccc(OCC(=O)OCC(=O)NCCC2=CCCCC2)cc1,-1.95
15,Cl.OC(c1ccc(Cl)cc1)c1nccc2ccccc12 (stereo not shown),-17.4
16,COc1ccc(C(=O)NCC(=O)OCc2ccc([N+](=O)[O-])cc2)cc1,-58.3
17,Cc1ccc(NC(=O)c2oc3ccccc3c2NC(=O)C2CCCO2)cc1C (stereo not shown),-8.51
18,COCCn1c(C)cc(/C=N/NC(=O)c2cc3ccccc3cc2O)c1C,10.3
19,COc1cccc(/C=N/n2c(=O)[nH]c3ccccc32)c1OC,10.7
20,COc1ccc(CN2CC34C=CC(O3)C(C(=O)O)C4C2=O)cc1 (stereo not shown),-8.51
21,COC(=O)[C@]1(C)N[C@H](c2ccc(SC3CCCCC3)c(OC)c2)[C@@H]2C(=O)N(C)C(=O)[C@@H]21.O=C(O)C(F)(F)F,-16.6
22,CCc1cccc(OCC(=O)Nc2ccc(S(=O)(=O)Nc3onc(C)c3C)cc2)c1,8.4
23,CCOc1ccc(S(=O)(=O)n2nc(C)cc2C)c2ccccc12,6.85
24,CC(=O)N1CCC(N(CCN2CCOCC2)C(=S)Nc2cccc(C)c2C)CC1,8.75
25,COc1cc(OC)c(OC)cc1/C=N/Nc1ncnc2c1[nH]c1ccc(C)cc12,1.59
26,NC(=O)CSc1nnc(-c2ccco2)n1N,4

row,SMILES,"hERG current change (%, negative = inhibition) at 10uM [%]"
1,Cc1nnc(NC(=O)CSc2nnc(CNC(=O)c3ccc(S(=O)(=O)N(C)C)cc3)o2)s1,22.6
2,COc1cccc(C(=O)NCC(=O)N/N=C/c2cccs2)c1,-0.489
3,Cc1nc(COc2ccc(C(=O)Nc3ccccc3N3CCOCC3)cc2)cs1,-49.1
4,O=C(O)c1cc(N/N=C/c2ccc(N3CCOCC3)s2)ccc1Cl,6.61
5,COc1ccc(-n2nc3c(c2NC(=O)C(C)Oc2ccccc2)CS(=O)C3)cc1 (stereo not shown),15
6,[O-]/[N+](=C\c1ccncc1)c1ccc(Br)cc1,1.3
7,Cc1ccccc1C(=O)Nc1c2c(nc3ccccc13)CCCC2,-5.54
8,O=C(Nc1ccc(C(=O)O)cc1)Nc1cccc([N+](=O)[O-])c1,32.1
9,COc1cccc(NC(=O)c2ccc3c(c2)N(CC(=O)N2CCCCC2)C(=O)C(C)(C)O3)c1,-6.71
10,Cc1ccc(NC(=O)c2cc(S(=O)(=O)N3CCc4ccccc43)cn2C)cc1C,-11
11,Cc1ccc(S(=O)(=O)/C=C/c2ccccc2)cc1,-9.53
12,CCOC(=O)C1=NN(C(=O)c2ccccc2)C(O)(c2ccc(C)cc2)C1 (stereo not shown),-17.2
13,N#Cc1ccc(-c2csc(NC(=O)c3cc(-c4cccs4)nc4ccccc34)n2)cc1,2.46
14,COC(=O)c1c(NC(=O)CN2CCN(S(=O)(=O)c3ccccc3[N+](=O)[O-])CC2)sc2c1CCC(C)C2 (stereo not shown),17.6
15,COc1cc(SC)ccc1C(=O)Nc1ccc2c(c1)CCN2S(C)(=O)=O,9.93
16,Nc1nc(SCC(=O)Nc2ccc(Br)cc2F)n[nH]1,4.75
17,NC(=O)c1c(NC(=O)CSc2nnc(-c3ccco3)n2-c2ccccc2)sc2c1CCC2,-21.8
18,Cc1cc(/C=N/NC(=O)C(O)(c2ccccc2)c2ccccc2)c(C)n1-c1cccc(C(=O)O)c1,9.91
19,O=C(Nc1ccc(S(=O)(=O)N2CCOCC2)cc1)c1ccco1,-20.3
20,Fc1ccc(-c2n[nH]c(=S)n2/N=C/c2c[nH]c3ccccc23)cc1,-8.26
21,CCOc1ccc(NC(=O)CCCNC(=O)Cn2cnc3sc(C)c(C)c3c2=O)cc1,14.9
22,CCOC(=O)Cc1csc(NC(=O)c2cccc([N+](=O)[O-])c2)n1,-29.7
23,COc1cccc(/C=N/N2C(=O)NC3(CCCCC3)C2=O)c1O,-7.53
24,COc1cccc(CNCc2ccc(OC)c3ccccc23)c1OC.O=C(O)C(=O)O,-28.9
25,CC(C)c1ccc(N2C=Nc3ccc(C(C)C)cc3C2)cc1,-9.45
26,Cc1onc(-c2ccccc2)c1-c1nnc(CN2CCN(S(=O)(=O)c3ccccc3F)CC2)o1,-28.4
